# Out of some 44,000 compounds screened, about 340 (0.77%) were called active. Inconclusive results (about 5%) are left out. Calls follow the shape of the dose curve; as a rule, active = well fitted inhibition curve with a large enough effect; inconclusive = small, poorly fitted or top-dose-only effect; inactive = flat fitted curve, though single readings scatter. This is one part of the list.
# Assay: Acumen qHTS Assay for Inhibitors of the mTORC1 Signaling Pathway in MEF (Tsc2-/-, p53-/-) Cells: Sytravon;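 also: plate controls were DMSO for no effect and rapamycin for full effect; nearly all actives have a fitted effect of over 50% in size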
# Conditions: phospho-rpS6 immunofluorescence/PI, 24 h; series mostly up to 38.3 µM; activity change, negative = inhibition: at the top concentration
# Method in brief: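 Tsc2-/-, p53-/- mouse embryonic fibroblasts (empty-vector line) exposed to compound 24 hrs at 37 C, fixed, immunostained for phospho-rpS6 and counterstained with propidium iodide. Acumen laser scanning gives % positive cells from Alexa 488/PI ratio, thresholded using 7.5 nM rapamycin; PI count gives viability.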
row,SMILES,"activity change, negative = inhibition"
1,O=C(C1CCC(Cn2c(=O)c3sccc3n(Cc3cccc(F)c3)c2=O)CC1)N1CCOCC1 (centres undefined),inactive: -1.22%
2,Cc1cc2nn(-c3ccc(F)cc3)nc2cc1NC(=O)c1cccc([N+](=O)[O-])c1C,inactive: 3.88%
3,COc1cccc(OC(=O)CSc2nnc(-c3cccs3)o2)c1,inactive: -1.68%
4,CC(=O)Nc1ccc(Nc2nc3c(S(=O)(=O)c4cc(C)ccc4C)nnn3c3ccsc23)cc1,inactive: -2.36%
5,COc1ccc(N2C(=O)CSC23C(=O)N(CC(=O)Nc2ccccc2F)c2ccccc23)cc1 (centres undefined),inactive: 0.16%
6,COC(=O)c1ccc(Nc2nc(-c3ccccc3Cl)nc3ccccc23)cc1,inactive: 4.39%
7,Clc1cccc(-c2nc3ccccn3c2Nc2ccc3c(c2)OCCO3)c1,inactive: -3.08%
8,Cc1cccc(C(=O)Nc2cc3nn(-c4ccc(C(C)C)cc4)nc3cc2C)c1,inactive: -10.6%
9,Cc1cc(OC(C)C(=O)N2CCC(c3nc4ccccc4o3)CC2)ccc1Cl (centres undefined),inactive: -0.201%
10,COc1cccc(CNC(=O)Cn2nc(-c3ccc(C)cc3)ccc2=O)c1,inactive: 8.29%
11,Cc1ccc(CSCCNC(=O)C2CCN(S(=O)(=O)Cc3ccccc3)CC2)cc1,inactive: 0%
12,CCn1ccc2cc(S(=O)(=O)N3CCCN(C(=O)Nc4cccc(SC)c4)CC3)ccc21,inactive: 0.419%
13,CCCNC(=O)C1CCN(C(=O)N2CC(C)Oc3ccccc32)CC1 (centres undefined),inactive: 3.12%
14,COc1ccc(-n2ccnc2SCC(=O)Nc2cccc(OC)c2)cc1,inactive: -19.2%
15,Cc1ccc(CNC(=O)C2CCC(CNS(=O)(=O)c3ccc(C)cc3)CC2)cc1 (centres undefined),inactive: -4.19%
16,CCCCN(C)S(=O)(=O)c1ccc(NC2=NS(=O)(=O)c3ccccc32)cc1,inactive: -4.28%
17,Cc1ccc(NC(=O)Cn2cc(C(=O)c3ccco3)c3ccccc32)cc1C,inactive: 0.206%
18,Cc1ccc(-n2nc3c(N4CCC(C(=O)NC5CCCCC5)CC4)nnc(C)c3c2C)cc1,inactive: -8.26%
19,Cc1cc2oc(C(=O)Nc3ccc(S(=O)(=O)N4CCC(C)CC4)cc3)cc(=O)c2cc1C,inactive: -12%
20,COc1ccc(-c2ccc(CNCCCSc3nnnn3C)o2)cc1Cl,inactive: 0.315%
21,CC(C)Cc1ccc(S(=O)(=O)NCc2nc3cccnc3n2Cc2ccccc2)cc1,inactive: -7.78%
22,COc1ccc(-n2ncc(C(=O)N3CCN(C(=O)c4ccco4)CC3)c2C2CCN(C(=O)OC(C)(C)C)CC2)cc1,inactive: 5.77%
23,Cc1ccc(/C=C/C(=O)N2CCC(c3nc4ccccc4o3)CC2)cc1,inactive: 1.51%
24,COc1ccc(NC(=O)c2c(NCc3ccc(OC)c(OC)c3OC)sc3c2CCC3)c(OC)c1,inactive: -1.65%

row,SMILES,"activity change, negative = inhibition"
1,Cc1ccc(N(C)S(=O)(=O)c2ccc(-c3coc(C)n3)cc2)cc1,inactive: -9.95%
2,Cc1cccc(-c2noc(-c3ccc(NCc4ccccc4)c([N+](=O)[O-])c3)n2)c1,inactive: -10.8%
3,CC1=C(c2ccc(C)c(C)c2)S(=O)(=O)N=C1N1CCC(C(=O)NCc2ccccc2C)CC1,inactive: -0.756%
4,COc1ccccc1N1CCN(CCCNC(=O)c2nnc(Cc3ccc(F)cc3Cl)o2)CC1,inactive: -9.25%
5,Cc1ccc(NC(=O)CN2C(=O)COc3ccc(S(=O)(=O)N4CCOCC4)cc32)cc1N(C)C,inactive: -4.48%
6,CC1=C(C(N)=O)C(c2cccc(Br)c2)n2nc(SCc3ccccc3Cl)nc2N1 (centres undefined),inactive: -1.11%
7,CCc1nc2ccc(C(=O)N3CCN(c4cc(C)ccc4C)CC3)cc2nc1CC,inactive: -10.8%
8,Cc1cc(C)c2oc(-c3ccc(NC(=O)COc4ccccc4C)cc3)nc2c1,inactive: -25.7%
9,CCOc1ccc(CCNC(=O)c2cc3sccc3n2CC)cc1OCC,inactive: -0.391%
10,Fc1ccc(CSc2nncn3c2cc2occc23)c(Cl)c1,inactive: -4.33%
11,COc1cc(C2C(C(=O)Nc3ccc(Cl)cc3)=C(C)Nc3nc(SC)nn32)cc(OC)c1OC (centres undefined),inactive: 1.4%
12,Cc1nn(CC(=O)NCCc2ccccc2)c(=O)c2nn(-c3ccccc3)c(C)c12,inactive: -3.43%
13,COC(=O)c1nnn(CC(=O)Nc2c(C)cccc2C)c1N,inactive: -0.487%
14,COc1cc(CN(C(=O)Nc2cccc(Cl)c2)c2ccccn2)cc(OC)c1OC,inactive: -3.01%
15,CC(=O)c1cccc(NC(=O)CCn2nc(C)c(S(=O)(=O)N(C)C)c2C)c1,inactive: 0%
16,CC(C)Nc1nc2c(S(=O)(=O)c3cccc(Cl)c3)nnn2c2ccsc12,inactive: -7.09%
17,Cc1ccc(C(=O)NCC(c2cccs2)S(=O)(=O)c2ccccc2)cc1C (centres undefined),inactive: -1.75%
18,CC(C)CCNC(=O)c1ccc2nc(CCc3ccccc3)oc2c1,inactive: -8.56%
19,CC(C)c1ccc(S(=O)(=O)N2CCN(CC(=O)Nc3ccccc3C(F)(F)F)CC2)cc1,inactive: -8.69%
20,CCCCC(CC)CNC(=O)CCCCn1c(=O)[nH]c2ccsc2c1=O (centres undefined),inactive: -2.51%
21,COC(=O)c1sc(N2C(=O)c3oc4ccc(C)cc4c(=O)c3C2c2ccc(O)c(OC)c2)nc1C (centres undefined),inactive: 6.56%
22,CCOC(=O)c1c(C)oc2nc(C)nc(NCCc3ccc(OC)c(OC)c3)c12,inactive: 4.89%
23,COC(=O)c1ccc(C(=O)OC)c(NC(=O)c2c(-c3ccccc3)noc2C)c1,inactive: -14%
24,COc1ccc(CCNc2nc(SCc3ccccc3F)nc3ccccc23)cc1OC,inactive: -13.9%

row,SMILES,"activity change, negative = inhibition"
1,CCc1ccc(NC(=O)C2CCCN2S(=O)(=O)c2ccc3nc(-c4ccccc4)[nH]c3c2)cc1 (centres undefined),inactive: -21.6%
2,Cc1ccccc1NC(=O)CC1NCCNC1=O (centres undefined),inactive: 5.09%
3,C=CCc1ccccc1OCc1nc2ccc(C)cc2[nH]1,inactive: -18.5%
4,Cn1c(=O)n(CC(=O)O)c(=O)c2c1nc1n2CCCN1c1ccc(Cl)cc1,inactive: 2.53%
5,CCOC(=O)c1c(NC(=O)CSc2nc(-c3ccc(OC)cc3)cc(C(F)(F)F)n2)sc(C)c1C,inactive: 2.29%
6,CCN(CC)S(=O)(=O)c1ccc2c(c1)c(=O)c(C(=O)NCCc1ccccc1)cn2C,inactive: -13.3%
7,COc1ccc(C2CC(=O)c3cnc4c(-c5ccc(F)cc5)c(C)nn4c3C2)cc1OC (centres undefined),inactive: -1.75%
8,Cc1ccc(CNC(=O)Cn2nc(N3CCN(c4ccccc4)CC3)ccc2=O)cc1,inactive: 6.94%
9,Cc1cccc(N2CCN(C(=O)c3cnn(-c4ccc(F)cc4F)c3C3CCN(C(=O)OC(C)(C)C)CC3)CC2)c1C,inactive: 0.561%
10,CCOc1ccc(NC(=O)CC2C(=O)N(c3ccccc3)C(=O)N2C2CCCC2)cc1 (centres undefined),inactive: -1.39%
11,Cc1ccc(NC(=O)CSc2nc3ccccc3c(=O)n2CCC(=O)NC2CCCCC2)cc1C,inactive: -1.66%
12,COc1ccc(-n2c(SCC(=O)NCc3ccco3)nc3c([nH]c4ccccc43)c2=O)cc1,inactive: -7.16%
13,CCOc1ccccc1NC(=O)c1cc2cc3cc(C)ccc3nc2s1,inactive: 3.92%
14,CCOC(=O)c1cc2c(=O)n3ccccc3nc2n(Cc2ccco2)c1=NC(=O)c1cccc(C)c1,inactive: -1.06%
15,CCCn1c2ccccc2c2cnn(CC(=O)N(CC)c3cc(C)ccc3C)c(=O)c21,inactive: -1.91%
16,Cc1ccc2oc(=O)c3cnn(CC(=O)N4CCN(c5ccccc5F)CC4)c3c2c1,inactive: 1.47%
17,Cc1ccc(C2C=C(c3ccccc3)Nc3nc(NS(=O)(=O)c4ccc(C)cc4)nn32)cc1 (centres undefined),inactive: -2.23%
18,Cc1cccc(N2CCN(C(=O)C3CCN(S(=O)(=O)c4c(C)noc4/C=C/c4ccccc4F)CC3)CC2C)c1 (centres undefined),inactive: -5.34%
19,Cc1ccc(NC(=O)Nc2cn(C)c(=O)c3ccccc23)c(Cl)c1,inactive: -0.829%
20,Cc1cc(=O)n(Cc2ccccc2)c2c1c(C)nn2-c1ccccc1,inactive: -0.662%
21,CCc1ccccc1NC(=O)c1ccc(Cn2nc(N3CCN(c4ccccc4)CC3)ccc2=O)o1,inactive: -3.69%
22,Cc1nc2c3ccccc3nc(NNC(=O)CCC(=O)N3CCN(c4cc(Cl)ccc4C)CC3)n2n1,inactive: 1.64%
23,COc1cccc(NC(=O)c2sc3nc(C)c(C(=O)Nc4ccc(C)cc4C)c(-c4ccco4)c3c2N)c1,inactive: -15.4%
24,COc1ccc(OCC(=O)Nc2cccc(C(=O)OCc3cc(=O)n4nc(C)sc4n3)c2)cc1,inactive: 17%

row,SMILES,"activity change, negative = inhibition"
1,CNC(=O)CCCN1C(=O)CCn2nc(-c3cn(C)c4ccccc34)cc21,inactive: -0.23%
2,COCc1cc(C)nc2sc(C(=O)Nc3ccc(C(C)=O)cc3)c(N)c12,inactive: -9.37%
3,CCC(=O)N1CCc2cc(CNS(=O)(=O)c3ccc(C(C)C)cc3)ccc21,inactive: 9.97%
4,CCOC(=O)c1c(NC(=O)/C=C/c2ccc(OCC)cc2)sc(C(C)=O)c1C,inactive: 1%
5,Cc1nn(-c2ccccc2)c2sc(C(=O)Nc3cccc(Cl)c3)cc12,inactive: -8.02%
6,COc1cc2nc(NCCc3ccccc3)n3nc(-c4cccnc4)nc3c2cc1OC,inactive: -0.332%
7,COC(=O)c1ccc2c(=O)n(CCCCCC(=O)N3CCN(c4cc(C)ccc4C)CC3)c(=O)[nH]c2c1,inactive: -27.7%
8,Cc1ccc(C)c(N2CCN(C(=O)CCS(=O)(=O)c3cc(Br)cc4c3N(C(=O)C3CC3)CC4)CC2)c1,inactive: 0.0604%
9,COc1cc(NC(=O)CCc2c(C)nc3c(-c4ccc(F)cc4)c(C)nn3c2C)cc(OC)c1OC,inactive: 1.8%
10,COc1ccc(CNC(=O)C(Cc2ccccc2)NS(=O)(=O)c2ccc3c(c2)CCN3C(C)=O)cc1 (centres undefined),inactive: -1.05%
11,CCCSc1ncc(Cl)c(C(=O)N2CCN(c3cccc(Cl)c3)CC2)n1,inactive: 0.16%
12,CCOc1ccc(NC(=O)CC2C(=O)N(c3ccc(OC)cc3)C(=O)N2C2CCCCC2)cc1 (centres undefined),inactive: -18.1%
13,CCc1ccc2occ(CC(=O)Nc3ccc(OC)c(Cl)c3)c2c1,inactive: 3.19%
14,Cc1nc(SCC(=O)Nc2ccc(C)c(Cl)c2)cc(-c2ccccc2)n1,inactive: 0.444%
15,CCOc1ccc(C(=O)Oc2c(Sc3ccccc3)c(C)nn2C(C)(C)C)cc1OCC,inactive: 0.36%
16,COc1ccc(CN(Cc2ccco2)C(=O)COc2ccccc2OC)cc1,inactive: 3.82%
17,CC(=O)c1ccc(NC(=O)Nc2sc3nc4n(c(=O)c3c2C)CCC(C)CC4)cc1 (centres undefined),inactive: 0.468%
18,CCc1ccccc1-n1cnc2cc(C(=O)NC3CCCCCC3)ccc21,inactive: -5.13%
19,O=C(Nc1ccccc1Cl)[C@H](CSCc1ccccc1)N1Cc2ccccc2C1=O,inactive: -11.8%
20,COc1ccccc1N1CCN(S(=O)(=O)c2ccc(F)c(C(=O)Nc3ccc(Cl)cc3C(F)(F)F)c2)CC1,inactive: 1.25%
21,CC(C)c1ccc(CNC(=O)c2ccc(N3CCCC3)c(NC(=O)NCc3ccccc3)c2)cc1,inactive: 0%
22,O=C(c1ccc2c(c1)CCN2S(=O)(=O)c1ccccc1)N1CCN(c2ccccc2F)CC1,inactive: -1.95%
